# From the supplement of paper PMC8728848
# The list shows a part of the results.
# Experiments:
# Test in all cases: glycan array binding signal (z-score within array); higher = stronger binding
# Details in all cases: glycan notation: IUPAC condensed, linker removed
# Gal(b1-6)Gal = molecular target: Gal(b1-6)Gal
# In short: (§1)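 Negative Z-scores can be read as non-binding. The Z-score is calculated within each array and then averaged across arrays of one protein sequence at different concentrations or buffers and across linkers. Arrays, 3228 in all, were curated from the Consortium for Functional Glycomics database and kept only where the protein sequence was available.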
# Gal3S(b1-3)GalNAc = molecular target: Gal3S(b1-3)GalNAc
# In short: as §1
# Gal3S(b1-3)GlcNAc = molecular target: Gal3S(b1-3)GlcNAc
# In short: as §1
# [1] = molecular target: Gal3S(b1-3)[Fuc(a1-4)]GlcNAc
# In short: as §1
# Gal3S(b1-4)Glc = molecular target: Gal3S(b1-4)Glc
# In short: as §1
# Gal3S(b1-4)Glc6S = molecular target: Gal3S(b1-4)Glc6S
# In short: as §1
# Gal3S(b1-4)GlcNAc = molecular target: Gal3S(b1-4)GlcNAc
# In short: as §1
# Gal3S(b1-4)GlcNAc6S = molecular target: Gal3S(b1-4)GlcNAc6S
# In short: as §1
# [2] = molecular target: Gal3S(b1-4)[Fuc(a1-3)]Glc
# In short: as §1
# [3] = molecular target: Gal3S(b1-4)[Fuc(a1-3)]Glc6S
# In short: as §1
# [4] = molecular target: Gal3S(b1-4)[Fuc(a1-3)]GlcNAc
# In short: as §1
# [5] = molecular target: Gal3S(b1-4)[Fuc(a1-3)]GlcNAc6S
# In short: as §1
# Gal3S4S(b1-4)GlcNAc = molecular target: Gal3S4S(b1-4)GlcNAc
# In short: as §1
# Gal3S6S(b1-4)GlcNAc = molecular target: Gal3S6S(b1-4)GlcNAc
# In short: as §1
# Gal3S6S(b1-4)GlcNAc6S = molecular target: Gal3S6S(b1-4)GlcNAc6S
# In short: as §1
# Gal4S(b1-4)GlcNAc = molecular target: Gal4S(b1-4)GlcNAc
# In short: as §1
# Gal4S6S(b1-4)GlcNAc = molecular target: Gal4S6S(b1-4)GlcNAc
# In short: as §1
# Gal6P(b1-4)GlcNAc = molecular target: Gal6P(b1-4)GlcNAc
# In short: as §1
# Gal6S(b1-3)GlcNAc = molecular target: Gal6S(b1-3)GlcNAc
# In short: as §1
# Gal6S(b1-3)GlcNAc6S = molecular target: Gal6S(b1-3)GlcNAc6S
# In short: as §1
# Gal6S(b1-4)Glc = molecular target: Gal6S(b1-4)Glc
# In short: as §1
# Gal6S(b1-4)Glc6S = molecular target: Gal6S(b1-4)Glc6S
# In short: as §1
# Gal6S(b1-4)GlcNAc = molecular target: Gal6S(b1-4)GlcNAc
# In short: as §1
# Gal6S(b1-4)GlcNAc6S = molecular target: Gal6S(b1-4)GlcNAc6S
# In short: as §1
# GalNAc(a1-3)Gal = molecular target: GalNAc(a1-3)Gal
# In short: as §1
# GalNAc(a1-3)GalNAc = molecular target: GalNAc(a1-3)GalNAc
# In short: as §1
# [6] = molecular target: GalNAc(a1-3)GalNAc(a1-3)Gal(a1-4)Gal(b1-4)GlcNAc
# In short: as §1
# [7] = molecular target: GalNAc(a1-3)GalNAc(b1-3)Gal(a1-4)Gal(b1-4)Glc
# In short: as §1
# [8] = molecular target: GalNAc(a1-3)GalNAc(b1-3)Gal(a1-4)Gal(b1-4)GlcNAc
# In short: as §1
# GalNAc(b1-3)Gal = molecular target: GalNAc(b1-3)Gal
# In short: as §1
binder,measurement,setting,value
"Epa1-NP (Candida glabrata), Q6VBJ0 (protein) MILNPALFLNKCVCIYTTLILLLLTNGGYATSSNDISLASKDPTTFPLGCSPDITTPKKGLSMELYSYDFRKKGSYPCWDAAYLDPNYPRTGYKSHRLLAKVDGVTGNINFYYHATKGCTPQLGHLPASYNYPKPLTMTNFTMLLYGYFRPKVTGFHTFTISADDLLFVNFGAGNAFDCCRRDSSADHFGNYQAYAIWGSKTAKDELTVHLDAGVYYPIRLFYNNREYDGALSFTFKTESNENTVSDFSEYFFSLDDTEEGCPGLISYDSSCASVKTSKIIGIDYHTETPNENLVPITKTIYHLGIPCTGTTTTPLCGSGFYDPLANKCVTINTSSTSSVTKTTSHTTSKEVSFHSSISSQKTLIPKSIPSPYGPIKSQSIPTEMETSSEISSSEYAFSDVISTPSHSPYTKKHSSLNSSSYTSTVIHSLTSYSISQGIFSTSLSEQNITSKSSTDKFSTATSMSNNITQSSIIISQFSTNNENYTTTSMHTSSDKISTETLNNSISTTTSILFSNSSTILKNNTTIISSDKDTHYHPVNPTIVCSTNKTEIICASITQPSISNSNNHWSSSVLKFNSTTVRSTLPSSAGSNETSINVPFSSSTESNTSTSSTSTSNSKMVRSTLPSSAGSNETSISVPFSSSTESNTSTSSTSTSNSKMVRSTLPSSAGSNETSINVPFSSSTESNTSTSSTSTSNSKTVRSTPFSSAGIIMTSLSQRNNKSASSYASSNSKCYNTADSCRKVHSTPSYLLTSSYTSEGVDYDCSLVSTKLKINDTNCVNNKHTTKSCLKTSVTTTIPTLEIKTARKSSSNTIGLHSYPTSSPNKSISSAPIIGYISSFKTIKTASPSYQTSDLTTITTITSLNNPGSTAVENTHESNDKSRKTSSNDISSKHSVIKETKDAVESSNKSHQTNTLKCSSIIIASSSHNSYESLGGTTLTLTLSKVYSPQNNDTLPFLEISEVNPSRTVLPESSKMMQYLTSTEERNKTARNTIATNIVSISTFHFEGEGNAIRMGYTQLLLMLIGIIVMNIGT",glycan array binding signal (z-score),Gal(b1-6)Gal,0.16
same,glycan array binding signal (z-score),Gal3S(b1-3)GalNAc,-0.313
same,glycan array binding signal (z-score),Gal3S(b1-3)GlcNAc,-0.296
same,glycan array binding signal (z-score),[1],-0.293
same,glycan array binding signal (z-score),Gal3S(b1-4)Glc,-0.328
same,glycan array binding signal (z-score),Gal3S(b1-4)Glc6S,-0.32
same,glycan array binding signal (z-score),Gal3S(b1-4)GlcNAc,-0.335
same,glycan array binding signal (z-score),Gal3S(b1-4)GlcNAc6S,-0.293
same,glycan array binding signal (z-score),[2],-0.286
same,glycan array binding signal (z-score),[3],-0.129
same,glycan array binding signal (z-score),[4],-0.295
same,glycan array binding signal (z-score),[5],-0.351
same,glycan array binding signal (z-score),Gal3S4S(b1-4)GlcNAc,-0.285
same,glycan array binding signal (z-score),Gal3S6S(b1-4)GlcNAc,-0.33
same,glycan array binding signal (z-score),Gal3S6S(b1-4)GlcNAc6S,-0.242
same,glycan array binding signal (z-score),Gal4S(b1-4)GlcNAc,-0.333
same,glycan array binding signal (z-score),Gal4S6S(b1-4)GlcNAc,-0.306
same,glycan array binding signal (z-score),Gal6P(b1-4)GlcNAc,-0.287
same,glycan array binding signal (z-score),Gal6S(b1-3)GlcNAc,-0.227
same,glycan array binding signal (z-score),Gal6S(b1-3)GlcNAc6S,0.054
same,glycan array binding signal (z-score),Gal6S(b1-4)Glc,0.574
same,glycan array binding signal (z-score),Gal6S(b1-4)Glc6S,0.73
same,glycan array binding signal (z-score),Gal6S(b1-4)GlcNAc,0.471
same,glycan array binding signal (z-score),Gal6S(b1-4)GlcNAc6S,0.854
same,glycan array binding signal (z-score),GalNAc(a1-3)Gal,-0.301
same,glycan array binding signal (z-score),GalNAc(a1-3)GalNAc,-0.306
same,glycan array binding signal (z-score),[6],-0.273
same,glycan array binding signal (z-score),[7],-0.292
same,glycan array binding signal (z-score),[8],-0.289
same,glycan array binding signal (z-score),GalNAc(b1-3)Gal,-0.277
